The whole screen tested about 310,000 compounds, of which about 2,200 (0.71%) showed an effect of 50% or more. Effects have a minus sign here. This is one part of the list.

This test deals with human ether-à-go-go-related gene (hERG) potassium channel (human, UniProt Q12809). Nature of the test: primary screen, population patch clamp on CHO cells stably expressing hERG.
Chain of human ether-à-go-go-related gene (hERG) potassium channel (Q12809 whole entry, looked up): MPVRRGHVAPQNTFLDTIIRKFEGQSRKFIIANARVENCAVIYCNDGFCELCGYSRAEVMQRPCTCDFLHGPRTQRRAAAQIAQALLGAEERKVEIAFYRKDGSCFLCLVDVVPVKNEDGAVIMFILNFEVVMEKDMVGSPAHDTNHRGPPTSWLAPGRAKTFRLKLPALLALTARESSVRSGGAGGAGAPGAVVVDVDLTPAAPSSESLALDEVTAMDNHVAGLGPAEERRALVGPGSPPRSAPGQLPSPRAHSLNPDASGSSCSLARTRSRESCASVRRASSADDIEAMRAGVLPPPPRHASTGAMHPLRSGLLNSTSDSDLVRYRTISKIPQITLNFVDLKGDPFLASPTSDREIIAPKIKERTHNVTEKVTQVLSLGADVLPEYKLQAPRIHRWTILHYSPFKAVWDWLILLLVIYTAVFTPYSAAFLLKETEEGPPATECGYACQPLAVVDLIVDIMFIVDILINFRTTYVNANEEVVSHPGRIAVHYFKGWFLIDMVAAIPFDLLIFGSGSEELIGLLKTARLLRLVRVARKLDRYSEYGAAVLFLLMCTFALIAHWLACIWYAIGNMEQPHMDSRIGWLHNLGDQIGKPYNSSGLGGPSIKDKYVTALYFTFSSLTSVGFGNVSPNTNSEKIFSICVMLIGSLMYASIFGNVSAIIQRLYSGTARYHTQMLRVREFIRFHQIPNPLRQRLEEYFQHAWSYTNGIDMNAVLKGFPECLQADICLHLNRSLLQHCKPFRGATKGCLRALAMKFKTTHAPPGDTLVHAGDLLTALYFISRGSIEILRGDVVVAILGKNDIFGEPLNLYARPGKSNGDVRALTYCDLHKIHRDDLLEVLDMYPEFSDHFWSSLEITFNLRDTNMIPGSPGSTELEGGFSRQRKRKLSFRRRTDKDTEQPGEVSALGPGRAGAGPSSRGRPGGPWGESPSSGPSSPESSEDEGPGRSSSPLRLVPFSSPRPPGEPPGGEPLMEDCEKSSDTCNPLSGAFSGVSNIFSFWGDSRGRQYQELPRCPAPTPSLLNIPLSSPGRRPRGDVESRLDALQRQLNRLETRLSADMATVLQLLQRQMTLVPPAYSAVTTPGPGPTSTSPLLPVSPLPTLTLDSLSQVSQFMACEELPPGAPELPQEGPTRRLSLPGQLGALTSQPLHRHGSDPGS
Turning to `Cc1[nH]n(-c2ccc(Cl)cc2)c(=O)c1/C=N/n1c(C)nc2ccccc2c1=O`, the “hERG current change (%, negative = inhibition) at 1uM” value was -6.75%.

With `Fc1ccccc1Cc1noc(CN2CCN(Cc3ccc4c(c3)OCO4)CC2)n1`, the “hERG current change (%, negative = inhibition) at 1uM” value is reported as -3.98%.

Turning to `CC(=O)Nc1ccc(NC(=O)C(C)n2nc([N+](=O)[O-])c(Br)c2C)cc1` (centres unmarked), the “hERG current change (%, negative = inhibition) at 1uM” value is 12.5%.

For the compound `Cc1cc(S(=O)(=O)N2CCCC2)c(C)s1`, the “hERG current change (%, negative = inhibition) at 1uM” value is recorded as 5.88%. The same measure for `Cc1ccc(CNC(=O)CSc2nc3[nH]ncc3c(=O)[nH]2)cc1`: 6.8%; for `C=CCC(C#Cc1ccccc1)[N+](C)(C)CC=C.[Br-]` (centres unmarked): 6.41%. Next, `CCOC(=O)c1cnn(-c2ccccc2)c1NC(=O)CN1CCOCC1`: 15.7%. The same measure for `O=C(Nc1ccccc1C(=O)NCCc1ccc(O)cc1)c1ccco1`: 14.8%. As for `Cc1ccc(S(=O)(=O)c2nc(-c3ccccc3Br)oc2N(C)C)cc1`, the “hERG current change (%, negative = inhibition) at 1uM” value was found to be 1.36%. The same measure for `CC(C)C[C@H](NC(=O)c1nc[nH]c1C(=O)NC1CCN(C(=O)OC(C)(C)C)CC1)C(=O)OC(C)(C)C`: -0.581%; for `COc1cc2c(cc1OC)C1CC(=O)C(CC(C)C)CN1CC2` (centres unmarked): 10.6%. For the compound `COc1ccc(CCN2CC(C(=O)Nc3ccc4c(c3)OCO4)CC2=O)cc1OC` (centres unmarked), the “hERG current change (%, negative = inhibition) at 1uM” value is given as 17.1%.

In the case of `Nn1c(-c2ccco2)n[nH]c1=S`, the “hERG current change (%, negative = inhibition) at 1uM” value stood at 12.1%.

On to `N#Cc1c(NC(=O)CSc2ncn[nH]2)sc2c1CCCCC2`, for which the “hERG current change (%, negative = inhibition) at 1uM” value stood at 7.88%. Next, `O=C(O)Cn1nnnc1SCC(=O)Nc1ccc(F)cc1F`: 17.8%.

For the compound `COc1ccc(Nc2nc3ccccc3nc2NS(=O)(=O)c2cccs2)cc1`, the “hERG current change (%, negative = inhibition) at 1uM” value stood at 5.73%. As to `O=C(CCCn1c(=S)[nH]c2cc3c(cc2c1=O)OCO3)N1CCN(c2ncccn2)CC1`, the “hERG current change (%, negative = inhibition) at 1uM” value is -1.33%. Take `Cc1cc(C)c2[nH]c(=O)c(CN(CC3CCCO3)C(=S)NCc3ccco3)cc2c1` (centres unmarked): the “hERG current change (%, negative = inhibition) at 1uM” value is 4.55%. Regarding `Cc1c(Br)c(C(=O)NCc2cc3cc(Cl)ccc3[nH]2)nn1C`, the “hERG current change (%, negative = inhibition) at 1uM” value was determined as 13.2%.

On to `COc1ccc([C@@]2(O)c3c(ccc(CC=C(C)C)c3O)NC(=O)[C@@H]2OC)cc1`, for which the “hERG current change (%, negative = inhibition) at 1uM” value stood at 17.9%. The same measure for `Cc1cc(NC(=O)COc2cccc(Oc3ccccc3)c2)no1`: 2.18%; for `O=C(Nc1cccc2nsnc12)c1ccc(-c2ccc(Br)cc2)o1`: 17.3%; for `O=C(c1n[nH]c2ccccc12)N1CCCCC1`: 8.84%. In the case of `CCc1ccc(CNC(=O)C2CC(=O)N(C3CCCC3)C2)cc1` (centres unmarked), the “hERG current change (%, negative = inhibition) at 1uM” value worked out at 11.6%. The same measure for `CC(C)C(NC(=O)/C(=C/c1ccco1)NC(=O)c1ccc(Br)o1)C(=O)O` (centres unmarked): 12.7%; for `CCCN(CC1CC1)S(=O)(=O)c1ccc(S(N)(=O)=O)cc1`: -1.2%; for `CN(C(=O)c1ccccc1Cl)c1ccccc1C(=O)NCc1ccccc1`: 6.8%. As to `O=C(Nc1ccc(C(F)(F)F)cc1)c1csc(-c2ccncc2)n1`, the “hERG current change (%, negative = inhibition) at 1uM” value is on record as -2.94%. On to `O=C(CN1CCN(c2ncc(C(F)(F)F)cc2Cl)CC1)NCCNc1ncc(C(F)(F)F)cc1Cl`, for which the “hERG current change (%, negative = inhibition) at 1uM” value was 18.1%. The same measure for `Cc1cc(NC(=O)CSc2nnc(NCc3ccco3)s2)no1`: 10.7%. As for `CCOC(=O)/C(=N\Nc1ccccc1Cl)N1CCN(C)CC1`, the “hERG current change (%, negative = inhibition) at 1uM” value was -5.92%. For `O=C(CN1C(=O)COc2ccc(Cl)cc21)NC1CC1`, the “hERG current change (%, negative = inhibition) at 1uM” value is 7.46%.

`CC1(C#CC[N+]2(C)CCCCC2)CCC2C(O1)c1ccccc1OC2(C)C.[I-]` (centres unmarked): the “hERG current change (%, negative = inhibition) at 1uM” value is recorded as 16.2%. On to `CC(Nc1ccc(F)cc1)=[N+](C)CCNS(=O)(=O)c1ccc(Cl)cc1.[I-]`, for which the “hERG current change (%, negative = inhibition) at 1uM” value is -45.1%. As for `Cc1cccc(C(=O)NCc2nnc3c4ccccc4c(-c4ccccc4)nn23)c1`, the “hERG current change (%, negative = inhibition) at 1uM” value is -6.83%. Take `CCCN1CCN(C(=O)Cn2cnc3sc(C)c(S(=O)(=O)N4CCC(C)CC4)c3c2=O)CC1`: the “hERG current change (%, negative = inhibition) at 1uM” value was 11.8%. Turning to `S=c1[nH]nc(COc2ccccc2)n1/N=C/c1ccccc1Br`, the “hERG current change (%, negative = inhibition) at 1uM” value stood at 15.1%. For `COc1ccc(NC(=O)C2C(c3ccccc3)C2(Cl)Cl)cc1` (centres unmarked), the “hERG current change (%, negative = inhibition) at 1uM” value is 12.5%.

Turning to `CC(=O)Nc1nc(C)cs1`, the “hERG current change (%, negative = inhibition) at 1uM” value was found to be 7.8%. On to `COc1ccc2c(C)cc(SCC(=O)Nc3nsc(-c4ccc(C)cc4)n3)nc2c1`, for which the “hERG current change (%, negative = inhibition) at 1uM” value is reported as 1.13%.

With `Cc1ccc(NCC(=O)Nc2cccc(F)c2)cc1S(=O)(=O)N1CCCCCC1`, the “hERG current change (%, negative = inhibition) at 1uM” value is given as -1.81%. Next, `CN1CCN(CC(=O)Nc2ccc([N+](=O)[O-])cc2C(=O)c2ccccc2)CC1`: -91.5%; `COc1cccc(C2CC(=O)NC(SC)=C2C#N)c1` (centres unmarked): 7.86%.

On to `COc1ccc(C2/C(=C(/O)c3ccc4c(c3)CC(C)O4)C(=O)C(=O)N2Cc2cccnc2)cc1` (centres unmarked), for which the “hERG current change (%, negative = inhibition) at 1uM” value is recorded as 9.88%.

For `CC(NC(=O)COC(=O)c1cc(NS(=O)(=O)c2ccc(Cl)c([N+](=O)[O-])c2)ccc1O)C1CC2CCC1C2` (centres unmarked), the “hERG current change (%, negative = inhibition) at 1uM” value was 6.36%.

For `O=C(NCc1cccs1)c1ccc(S(=O)(=O)N2CCOCC2)cc1`, the “hERG current change (%, negative = inhibition) at 1uM” value amounted to 1.56%.

Regarding `Cc1ccc(S(=O)(=O)NN/C(=N/S(=O)(=O)c2ccccc2)c2ccccc2)cc1`, the “hERG current change (%, negative = inhibition) at 1uM” value is listed as 7.15%.

Take `O=C1Nc2ccccc2C1(O)c1ccccc1O` (centres unmarked): the “hERG current change (%, negative = inhibition) at 1uM” value is given as 13.7%. With `CC(C)(O[C@@H]1O[C@H](CO)[C@@H](O)[C@H](O)[C@H]1O)[C@@H]1CC=C(C(=O)O)CC1`, the “hERG current change (%, negative = inhibition) at 1uM” value came out at 10.4%.

For the compound `O=C1CCNCCN1[C@H](CO)c1ccccc1`, the “hERG current change (%, negative = inhibition) at 1uM” value was 10.9%. Next, `CC(C)C[C@H](NC(=O)Nc1cccc(Cl)c1)C(=O)O`: 4.92%. For the compound `CCc1ccccc1NC(=O)NC1CC2CCC(C1)N2Cc1cccs1` (centres unmarked), the “hERG current change (%, negative = inhibition) at 1uM” value was -1.25%. Next, `O=C(C1CCCCC1)N(Cc1nc2sc3c(c2c(=O)[nH]1)CCCC3)Cc1cccs1`: 12.1%; `c1csc(CSc2nnc3sc4ccccc4n23)c1`: -1.43%. Next, `O=C(CCc1nc2ccccc2s1)N1CCN(S(=O)(=O)c2cccs2)CC1`: -10.3%; `CC(C)(C)OC(=O)N1CC(O)CC1C(=O)OCC(=O)c1ccc(Cl)cc1` (centres unmarked): -6.58%.

(Values after publication PMC4336329 (PLoS ONE, 2015).)
